# Hit rate of the full screen: of about 310,000 compounds, about 2,200 (0.71%) showed an effect of 50% or more. Effects have a minus sign here. Some of the results follow.
# Biological target: human ether-à-go-go-related gene (hERG) potassium channel (human, UniProt Q12809)
# Assay: primary screen, population patch clamp on CHO cells stably expressing hERG
# Sequence of human ether-à-go-go-related gene (hERG) potassium channel (Q12809 whole entry, looked up): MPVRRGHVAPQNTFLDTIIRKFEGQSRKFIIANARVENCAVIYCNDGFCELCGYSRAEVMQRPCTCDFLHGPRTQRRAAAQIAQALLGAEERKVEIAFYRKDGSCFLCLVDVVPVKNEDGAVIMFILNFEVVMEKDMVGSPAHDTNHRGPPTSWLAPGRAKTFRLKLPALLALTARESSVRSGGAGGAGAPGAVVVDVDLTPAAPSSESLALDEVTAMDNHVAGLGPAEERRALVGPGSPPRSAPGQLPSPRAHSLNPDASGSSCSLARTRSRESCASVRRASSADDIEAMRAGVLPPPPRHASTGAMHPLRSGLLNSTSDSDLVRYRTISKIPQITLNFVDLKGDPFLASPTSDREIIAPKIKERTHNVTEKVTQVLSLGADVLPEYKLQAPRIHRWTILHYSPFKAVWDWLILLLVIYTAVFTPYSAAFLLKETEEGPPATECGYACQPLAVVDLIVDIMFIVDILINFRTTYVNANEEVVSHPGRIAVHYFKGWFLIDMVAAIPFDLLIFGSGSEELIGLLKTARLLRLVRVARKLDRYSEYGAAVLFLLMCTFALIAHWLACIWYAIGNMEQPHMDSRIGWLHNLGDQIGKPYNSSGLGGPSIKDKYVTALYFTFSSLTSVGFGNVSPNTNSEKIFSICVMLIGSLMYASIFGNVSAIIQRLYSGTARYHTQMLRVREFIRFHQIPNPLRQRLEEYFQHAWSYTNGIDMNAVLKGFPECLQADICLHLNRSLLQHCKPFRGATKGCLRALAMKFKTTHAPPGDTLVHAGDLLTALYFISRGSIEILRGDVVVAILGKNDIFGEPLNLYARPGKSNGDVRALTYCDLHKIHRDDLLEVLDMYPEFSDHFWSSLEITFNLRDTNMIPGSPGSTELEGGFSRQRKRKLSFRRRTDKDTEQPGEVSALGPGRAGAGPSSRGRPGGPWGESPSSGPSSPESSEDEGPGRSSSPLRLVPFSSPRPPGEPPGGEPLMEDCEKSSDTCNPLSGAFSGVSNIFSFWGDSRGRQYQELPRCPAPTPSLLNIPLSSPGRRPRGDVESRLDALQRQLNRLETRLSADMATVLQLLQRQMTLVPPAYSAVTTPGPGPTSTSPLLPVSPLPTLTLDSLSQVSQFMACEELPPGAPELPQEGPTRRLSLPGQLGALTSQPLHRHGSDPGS
row,Compound,"hERG current change (%, negative = inhibition) at 1uM"
1,COC(=O)CSc1nnc2cc(C)c3ccccc3n12,3.72%
2,CCOc1ccccc1NC(=O)Cn1c(=O)oc2ccccc21,8.7%
3,Cc1ccc(C)c(NC(=O)CCC(=O)NNS(=O)(=O)c2ccc(Cl)cc2)c1,5.02%
4,CCCOc1ccccc1OCC(=O)N1CCN(S(=O)(=O)c2ccc(Cl)cc2)CC1,7.66%
5,COc1ccc(CCNC(=O)Cn2c(=O)c3cccn3c3cccnc32)c(OC)c1OC,7.3%
6,Cc1ccc(S(=O)(=O)N2CCCC(C(=O)NC3CCCC3)C2)cc1 (stereo not shown),14%
7,O=C(c1ccc(F)c(F)c1)N1CCCc2ccccc21,10.1%
8,O=C(Cn1cnc2cc([N+](=O)[O-])ccc2c1=O)Nc1ccccc1-c1ccccc1,3.1%
9,Cc1cc(C)n2nc(-c3cnn(C)c3C(F)(F)F)cc2n1,1.96%
10,Cn1c(=O)[nH]c(=O)c2c1nc(N1CCCCCC1)n2CCCSc1nnnn1-c1ccccc1,-14.2%
11,COc1ccccc1CNC(=O)C1CCCCN1S(=O)(=O)c1ccccc1 (stereo not shown),-11.4%
12,O=C(/C=C/c1ccccc1Cl)N1CCOCC1,16.6%
13,CCOC(=O)c1[nH]c(C)c(/C(O)=C2\C(=O)C(=O)N(CCCN(CC)CC)C2c2cccnc2)c1C (stereo not shown),4.8%
14,C/C(=N\O)c1c(C)c2ccccc2n1C,-3.85%
15,C/C(CC(=O)Nc1ccccc1C#N)=N\NC(=O)c1ccncc1,9.16%
16,CCCCCCNC(=O)CCCCCNS(=O)(=O)c1ccc(Br)cc1,7.97%
17,CC(C)(C)C(=O)N(CCN(C(=O)C(C)(C)C)c1ccccc1)c1ccccc1,15.5%
18,Cc1ccc(NC(=O)C2(c3cccs3)CCOCC2)cc1C,3.31%
19,CSc1nc2nc(-c3cccc(C(F)(F)F)c3)ccn2n1,4.47%
20,O=C(COc1ccc(Cl)cc1)NCCSCc1cccc(Cl)c1,0.26%

row,Compound,"hERG current change (%, negative = inhibition) at 1uM"
1,O=C1CC(Nc2ccc(N3CCOCC3)cc2)C(=O)N1C1CCCCC1 (stereo not shown),6.85%
2,Cc1ccc(-c2nc(CS(=O)CC(=O)NCCN3CCCCCC3)c(C)o2)cc1 (stereo not shown),15.5%
3,Cc1ccc(NS(=O)(=O)c2cc(C(=O)NCCSC3CCCCC3)ccc2C)cc1,-2.03%
4,COc1c(F)c(F)c(C(=O)O)c(Nc2cc(C)cc(C)c2)c1F,11.3%
5,CCNC(=O)/C(C#N)=C/c1c(N2CCN(c3ccc(OC)cc3)CC2)nc2c(C)cccn2c1=O,18.6%
6,Cc1cc(C(=O)COc2cccnc2[N+](=O)[O-])c(C)n1Cc1cccs1,2.44%
7,C=CCn1nc(-c2ccccc2)c(N2CCCCC2)cc1=O,10%
8,COc1ccccc1/C=C/C1(C(=O)NC2CCCC2)CC(=O)N1c1ccc(F)cc1 (stereo not shown),10.9%
9,CCOC(=O)c1cc(-c2ccccc2)n(CC(=O)Nc2cc(OC)cc(OC)c2)c1C,16%
10,CCOC(=O)C1(Cc2ccccc2)C(=O)N(CCCN(C)C)c2ccccc21.Cl (stereo not shown),5.69%
11,COc1cc(OC)cc(C(=O)NC(=S)Nc2ccc(NC(=O)c3ccco3)cc2)c1,6.89%
12,CCCCC(=O)C1CCN(Cc2ccccc2)CC1,-11%
13,Cc1cc(OCCCCNC(C)C)cc(C(C)C)c1.O=C(O)C(=O)O,-4.28%
14,CC(C)COP(=O)(OCC(C)C)C(O)c1cccnc1 (stereo not shown),9.56%
15,COc1cccc(C(C)NC(=S)NCc2ccc(Cl)cc2)c1 (stereo not shown),10.1%
16,CCc1ccc(C(=O)COC(=O)c2cnc(C)cn2)cc1,8.58%
17,Cc1nc2ccc([N+](=O)[O-])cc2c(=O)n1Cc1ccc(Cl)cc1,10.5%
18,O=C(/C=C/c1ccco1)NC(=S)Nc1cccc([N+](=O)[O-])c1,13.3%
19,O=C(CCc1nc(-c2ccccc2)no1)NCc1ccccc1CN1CCOCC1,11.9%
20,O=C1C=C(NCC2CCCO2)C2(CCCCC2)O1 (stereo not shown),15.6%

row,Compound,"hERG current change (%, negative = inhibition) at 1uM"
1,CC(C)C(=O)NC(=S)Nc1ccccc1F,9.48%
2,O=C(Cn1ncc2c3ccccc3n(Cc3ccccc3F)c2c1=O)NCC1CCCO1 (stereo not shown),19.1%
3,O=C(Cc1cccc2ccccc12)Nc1ccc(O)cc1C(=O)O,13%
4,N#CCCN(C(=O)CSc1nc(-c2ccccc2)cn1N)c1ccc(F)cc1,8.5%
5,O=C(CCS(=O)(=O)Cc1ccccc1)NCCc1ccccc1,11.4%
6,COc1ccccc1/C=C/C(=O)N1CCC(c2ccccc2)C1 (stereo not shown),19.3%
7,CCCCNS(=O)(=O)c1ccc2nc(SCC(N)=O)[nH]c2c1,10.2%
8,Cc1cc2c(cc1C)-c1c(ssc1=Nc1ccc(S(N)(=O)=O)cc1)C(C)(C)N2,9.34%
9,COC(=O)c1ccc(NC(=O)Nc2ccc([N+](=O)[O-])cc2)cc1,10.9%
10,O=C(CNC(=O)c1ccco1)OCC(=O)c1ccccc1,17.6%
11,C=CCOC(=O)C1=C[C@@H](c2csc3ccccc23)C[C@@H](OCCCCO)O1,11.8%
12,C=CCC1(N(C(C)=O)c2ccccc2C)CCCCC1,7.18%
13,O=C(/C=C/c1ccccc1Cl)NC1CCCCC1,12.8%
14,O=C(COC(=O)c1cccs1)Nc1cc(S(=O)(=O)N2CCOCC2)ccc1Cl,6.72%
15,O=C(CN(C(=O)CCC(=O)Nc1nccs1)c1ccccc1F)NCc1ccc(F)cc1,7.27%
16,O=C(CCNC(=O)c1ccco1)Nc1cccc(Br)c1,-0.74%
17,Cc1ccc(C(=O)COC(=O)CSc2cccc3cccnc23)c(C)c1,7.69%
18,CCOc1cccc(-c2nnc(SCC(=O)NC3CC3)n2C)c1,-0.121%

# Source: publication PMC4336329 (PLoS ONE, 2015)
